Here are results for 167 variants from the RNAGym collection of RNA variant scans (doi:10.7554/elife.90254).

B1: OR4K15 (parent)
chain: GUUAACGGUCAUAGGCCAUGGAAACUAGGAGCACCAUUUCGCUGCCAGUGAAGAAAUGAACAAAGAAAAUCUGGGCCAGGCAGGCAUCAAAAGAAAUAGUCUUGCGCUCAACCAGAAAGUCUGUAAUCAUUUUAAGGGUA

The source gives no read counts; variants with many changes may rest on few reads.

In this data set the parent is B1. As to the kind of experiment: self-cleavage, relative activity (ratio to wild type); higher = more cleavage; in vitro, sequencing; the parent is a self-cleaving ribozyme.
On to A24G A56G A60G A63G U100A, for which the self-cleavage worked out at 0.7.

Consider A24G A47G A135U, for which the self-cleavage is 1.02. As for A24G A78U A126G U130C, the self-cleavage is 0.09. Regarding A24G A33G U43C A78G, the self-cleavage was 0.17. The result for A23G A56G C81U reads 0.48. A23U A33G A51G A59G A86G A111G: the self-cleavage was found to be 0.02.

For A23G U39A U100C, the self-cleavage amounted to 1.73.

For the variant A23G U100C U103C, the self-cleavage is 1.52. Regarding A24G A89U U102C U103C, the self-cleavage turned out to be 0.27. As for A23G A64G U103C, the self-cleavage is 0.1.

For the variant A23G U43C U122A, the self-cleavage is 0.84. As to A23U A36U U38C A56G A67G A135G, the self-cleavage was 1.3. Take A24G A78U A129G: the self-cleavage worked out at 0.08. As to A23G U39C A59G, the self-cleavage was 0.89. Take A24G A54G U102C U108A A125G: the self-cleavage was determined as 0.01.

A23U A114U A129G: the self-cleavage is 0.04. For A24G A68U A69G U72C A117G A125G, the self-cleavage was 0.02.

Take A23G A55G A110G A126G: the self-cleavage came to 0.12. To A23G A66G A129G U132A belongs 1.26; to A24G A64U A95U U102C, 1.85. Regarding A24G A33U U100C, the self-cleavage was 2.37. To A24C A33G A62G A67G U122C belongs 0.28; to A24G A30G A62G, 1.42; to A24G A67C A94G A111U C112U, 0.04. Turning to A23G A60U A96G U108C A110G, the self-cleavage is 0.02. For the variant A24C A82G U87A A89G A91G, the self-cleavage is 0.13. A24C A51U A55G A62G: the self-cleavage stood at 1.14. For A24G A68G A91G U124C A134G, the self-cleavage came to 0.39. To A23G U97C A116U A126G belongs 0.14; to A23U A60G A64G, 1.27. The result for A23U A68G A78G A117U A125G reads 0.02; that for A24G A60G A66U, 1.13; that for A24G A60G A66C, 0.95. In the case of A24G A68G A92G U102A, the self-cleavage stood at 0.35. The result for A23G U49C A60G U70C A118G reads 0.17. Consider A23G A54G A118G, for which the self-cleavage turned out to be 0.86. A24G A51G A111G U124C U131A: the self-cleavage amounted to 0. On to A23G A60U U72G, for which the self-cleavage stood at 0.48. The result for A23G U72G A118G reads 0.18; that for A23G U39C U87A A96U, 1.21. Turning to A23G U122G U130C, the self-cleavage was 1.92. For the variant A23G A110G A135G, the self-cleavage worked out at 0.11. Take A24G A51G A126G: the self-cleavage was 0.58. Consider A24C A55U A60G, for which the self-cleavage worked out at 0.28. With A23U U72A A129G, the self-cleavage was determined as 0.12. Regarding A24C U103C U127C, the self-cleavage came to 0.84. To A24G A90G A91G A110G belongs 0.11; to A23U U26A U49C A94G, 1.08; to A23G U38C U72A U139C, 0.26. Consider A24G A47G A78G A94U A111G, for which the self-cleavage was determined as 0.

For A24G A51C A78U U122C, the self-cleavage was determined as 0.08. For A23G A114G A140U, the self-cleavage is 0.43. For A23G A114G A140G, the self-cleavage was 0.23. For A24G A60G U87A A98G, the self-cleavage was found to be 0.27.

As for A24G A111G U120A, the self-cleavage amounted to 0.02. As to A23G A54G A129C, the self-cleavage came to 0.8. The result for A23G U38C A54G A94U reads 1.31; that for A23U A51C U103C, 0.49. To A23G C40U A69U A110G A117G belongs 0.2; to A24G A56U G84A, 1.45; to A23G A55G A110G A111G, 0.16. Regarding A23U G29U A52G A55G A78G A125G, the self-cleavage is 0.08. For the variant A23G G41A U102C A114G A135U, the self-cleavage worked out at 0.73. Take A23G U38A A51U A94G: the self-cleavage was found to be 1.46. Turning to A23G U37C U39A A51U A56G, the self-cleavage was 1.34. For the variant A23G A95G A118G, the self-cleavage worked out at 2.2. To A23G U103A U108C A110G belongs 0.01; to A24G A117G A125G U127A, 2.08; to A23G A110G U131C, 0.08. To A23G U72A U108A belongs 0.02.

As for A23U U38C A64G, the self-cleavage stood at 1.27.

A23U A30G U70C: the self-cleavage is 1.03. Turning to A24G A47G A95C, the self-cleavage was found to be 0.82. The result for A24C A59G A92G A110G A118G reads 0.05. To A24G A92G A111U belongs 0.15; to A23G A55G A92G U97C U131C, 1.2; to A24G A59G A95G U102A, 1.29. To A24G C32U C46A A66G A68G U100C belongs 1.04; to A24G A62U A66G U131C, 1.05; to A24G A51G A55G, 1.97. In the case of A23G A96U A110C, the self-cleavage turned out to be 0.33. A23G A54G U100A: the self-cleavage was 1. For the variant A23G U43A A62U G79A U100C, the self-cleavage is 0.04. Take A24G A54U G80U: the self-cleavage was 0.18.

With A23G U43C A94U, the self-cleavage was found to be 2.19. Take A23G C35U U38C: the self-cleavage is 1.02. The result for A23U A89G A94G reads 1.08. To A23G U39A A52G A59G belongs 0.36; to A24G A47G U49C A59G U100C U120C, 1.02. As for A23G A66G A96G U100C, the self-cleavage is 2.24.

In the case of A23U U57C A69G U103C A129G, the self-cleavage worked out at 0.62.

On to A23G A54U A63G U97C C121U, for which the self-cleavage came out at 0.99. Turning to A23G U26C A33G U87C A90G, the self-cleavage came out at 0.06. For the variant A24C U131C A140G, the self-cleavage was determined as 1.28. For A24C A64G A91G A135G, the self-cleavage is 2.04. Regarding A23G U37C A69G A116G, the self-cleavage is 0.52. To A23G A68G A129G belongs 1.22; to A23G C42U U43C, 1.12; to A23G A94U A98G A118G, 0.33. Take A24G A30U A63C U132C: the self-cleavage is 1.42. On to A23G U39C U43C, for which the self-cleavage was determined as 0.91. The result for A23G U39C A98U U108C reads 0.01. On to A24G A27G A91C U102C, for which the self-cleavage was determined as 1.91. On to A23U A95G A118U, for which the self-cleavage stood at 1.73. As for A23G C35U A51G G106U, the self-cleavage amounted to 0.01. The result for A23G A59G U102C reads 0.88; that for A24G A52G A91U, 1.42. On to A23U U38A A69G, for which the self-cleavage was found to be 1.15. For the variant A23G U72A A96G A110G, the self-cleavage was 0.1. A23U A55G G93A A96G A116G U122C: the self-cleavage was determined as 0.95. As for A24G A55G A78G U108C A116G U120C, the self-cleavage was found to be 0. With A23U A69G U108A, the self-cleavage was determined as 0.04. The result for A23G U57C A78G A140G reads 0.04. As for A24G A91G C105U A111U, the self-cleavage came to 0.01. For the variant A23U A60G A95G A111G, the self-cleavage came out at 0.02. A24G A30G A90U A92U U120C: the self-cleavage was 1.08.

A24G A91G A111C: the self-cleavage turned out to be 0.03.

With A23G A66G A117G, the self-cleavage amounted to 0.44. On to A23G A116G U131C, for which the self-cleavage came out at 0.29. To A23G U57C A59G U130C belongs 0.81.

Consider A23U G29U U37C, for which the self-cleavage was found to be 2.19. To A23G A63G A94G belongs 1.72. On to A24G A47G A78G U122C A134G, for which the self-cleavage was found to be 0.11. Take A24C A126U A129U: the self-cleavage is 0.58. A23G A94G A96G: the self-cleavage turned out to be 2.02. A23G A69G A117G: the self-cleavage came to 1.29.

With A23G A62U G84A A95G A96G U108C A126G, the self-cleavage is 0.01.

As to A23G A78G U87G U100C, the self-cleavage amounted to 0.2. To A24G A56G U72A U127C belongs 0.36. Consider A24G A56G A94U, for which the self-cleavage was determined as 1.02. As to A23G U108C U131G, the self-cleavage was 0.

Take A23U A60G C101A: the self-cleavage is 0.03. Turning to A23G U38C A51G A52G U72C A91G, the self-cleavage is 0.09. Regarding A23U A78G U102C A125G, the self-cleavage was 0.22.

In the case of A23G U87C A126G, the self-cleavage worked out at 0.23. On to A23G U38C A63C U120A, for which the self-cleavage turned out to be 1.57. To A24G A68U A69C belongs 1.51; to A23G U39C A114U, 0.05.

In the case of A24G A64G A95U, the self-cleavage came out at 0.24. In the case of A23G U97A U122C, the self-cleavage is 0.5. With A23G A117G U122A U131A, the self-cleavage was found to be 0.67.

As to A23U U43C U70C A90G, the self-cleavage came out at 0.3. For the variant A24G A51U A60G A94G, the self-cleavage came out at 0.67. A23G U72A A78G U87C: the self-cleavage came out at 0.39. Regarding A23G A59G A94G, the self-cleavage stood at 0.77. With A24G A36G U49C, the self-cleavage turned out to be 1.25. As for A23G A56G U108C A111C A116G U122C, the self-cleavage worked out at 0.01. For the variant A24G A59G U122C A134G A140U, the self-cleavage came to 0.86.

Regarding A23G A86G A96G, the self-cleavage was 1.31.

For A23G A68G A111C, the self-cleavage came out at 0. Consider A24G A51U A54G A60G A67U A91G, for which the self-cleavage turned out to be 0.89. Turning to A23U A96G G123A, the self-cleavage was 0.8. For the variant A24G A51C A55G, the self-cleavage amounted to 0.96.

As for A23G A69G C85U A129U, the self-cleavage stood at 0.29. Take A23G U37C A82C U120C: the self-cleavage was determined as 0.1.

With A24G A27U A30G U39C U49C A54U, the self-cleavage turned out to be 1.59.

Turning to A23G U49C A82G A98G U108C A126G, the self-cleavage is 0.01. In the case of A23U U49C A56G U57C, the self-cleavage was found to be 1.

On to A24G A52G A96G U132C, for which the self-cleavage is 2.03. On to A24G A56G U102C, for which the self-cleavage amounted to 1.29. As for A24C A66G U124C, the self-cleavage stood at 0.88. As for A24G A27G A52G A56G A118G, the self-cleavage came to 0.64. As for A24G A69G A89G A117G, the self-cleavage worked out at 1.53.

On to A23U A54U U72C A98G, for which the self-cleavage came out at 0.08.

As for A23U U37C A94G U132C, the self-cleavage came to 1.87.

As to A24G A54G U127C, the self-cleavage worked out at 0.67.

Consider A24C U57C A89G A96G G106U, for which the self-cleavage came to 0.02.
